Reference: PubChem BioAssay AID1030 (National Center for Advancing Translational Sciences (NCATS), 2008)
Hit rate of the full screen: of about 220,000 compounds, about 16,000 (7.3%) were called active. The inconclusive results got no clear call from the source; some entries with a clear call stand among them for comparison. Calls follow the shape of the dose curve; as a rule, active = well fitted inhibition curve with a large enough effect (not every such curve was filed as active); inconclusive = small, poorly fitted or top-dose-only effect, or another doubt; inactive = no such curve, though single readings can be large or run the other way. Potencies of inconclusive entries are left out as doubtful fits.

Biological target: Aldehyde dehydrogenase 1A1 (Homo sapiens) (UniProt P00352)
Chain of UniProt P00352 (P00352 whole entry, looked up): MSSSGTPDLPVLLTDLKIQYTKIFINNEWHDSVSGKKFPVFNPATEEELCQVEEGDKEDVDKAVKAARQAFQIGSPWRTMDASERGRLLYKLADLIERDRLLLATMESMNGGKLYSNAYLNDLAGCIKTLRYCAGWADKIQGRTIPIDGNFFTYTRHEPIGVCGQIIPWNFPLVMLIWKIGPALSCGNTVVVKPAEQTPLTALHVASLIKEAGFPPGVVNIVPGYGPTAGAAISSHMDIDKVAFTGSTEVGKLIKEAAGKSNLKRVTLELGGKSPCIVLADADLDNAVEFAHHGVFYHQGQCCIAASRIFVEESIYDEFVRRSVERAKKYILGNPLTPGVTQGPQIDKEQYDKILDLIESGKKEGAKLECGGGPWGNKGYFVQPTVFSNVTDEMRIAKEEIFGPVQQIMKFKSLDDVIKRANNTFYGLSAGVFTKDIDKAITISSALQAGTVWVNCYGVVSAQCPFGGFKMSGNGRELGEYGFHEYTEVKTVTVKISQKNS
Assay: qHTS Assay for Inhibitors of Aldehyde Dehydrogenase 1 (ALDH1A1)
Conditions: Purified ALDH1A1, NADH fluorescence, propionaldehyde substrate; series mostly up to 75.3 µM
Potency is read from the fitted curve at half-maximal effect; tags tell the direction and shape of the fitted curve.

| Structure (SMILES) | Potency |
| --- | --- |
| N#Cc1c(NC(=O)C2CC(c3ccccc3Cl)=NO2)sc2c1CCC2 (centres undefined) | inconclusive [inhibitor, partial curve] |
| COc1ccccc1C(OC(=O)c1cccs1)C(=O)NCc1ccco1 (centres undefined) | active: 25.1 µM |
| O=C(Cn1cnc2ccccc21)Nc1ccc(SC(F)F)cc1 | inactive |
| O=C(NNC(=O)c1ccccc1[N+](=O)[O-])c1ccccc1[N+](=O)[O-] | active: 22.4 µM |
| O=c1cc(-c2ccccc2)[nH]c2nc3ccccc3n12 | inconclusive [inhibitor, partial curve] |
| CC(NC(=O)c1ccc(Br)s1)C1CCCO1 (centres undefined) | inconclusive [inhibitor, single point] |
| Cc1n[nH]c(=S)n1/N=C/c1ccc(OCc2ccc(Cl)cc2Cl)cc1 | inactive |
| O=C(NCC(=O)N(Cc1cccs1)C(C(=O)NC1CCCCC1)c1ccncc1)c1ccco1 (centres undefined) | inconclusive [inhibitor, single point] |
| Cc1ccc(S(=O)(=O)NCCC(=O)Nc2ccc(C)cc2C(=O)c2ccccc2)cc1 | inconclusive [inhibitor, single point] |
| CCOCCCNC(=O)CCc1ccc(S(=O)(=O)Nc2ccc(C)cc2)cc1 | inactive |
| Cc1cc(C(F)(F)F)nc(Nc2nc(C)c3ccccc3n2)n1 | inactive |
| O=[N+]([O-])c1ccccc1/C=C/C=N/n1c(-c2ccco2)n[nH]c1=S | inactive |
| O=C(c1ccco1)N1CCN(c2ncnc3c2[nH]c2ccccc23)CC1 | inconclusive [inhibitor, single point] |
| Cn1c(SCC(=O)Nc2ccc(F)cc2F)nnc1-c1cccnc1 | inconclusive [inhibitor, single point] |
| Cc1cc2cc(CN(Cc3ccco3)C(=S)NCC3CCCO3)c(=O)[nH]c2cc1C (centres undefined) | inconclusive [inhibitor, single point] |
| Nc1nnc(SCC(=O)c2ccccc2)s1 | inconclusive [inhibitor, single point] |
| Cc1ccc(OCc2nnc(SCC(=O)c3cccs3)n2-c2ccccc2)cc1C | inconclusive [inhibitor, partial curve] |
| Cc1sc(N)nc1C12CC3CC(CC(C3)C1)C2 | inconclusive [inhibitor, single point] |
| Nc1c(C(O)(C(F)(F)F)C(F)(F)F)cc(C(O)(C(F)(F)F)C(F)(F)F)c2ccccc12 | inactive |
| CC(C)(O)C(=O)O | inconclusive [inhibitor, single point] |
| COc1ccccc1-n1c(SCC(=O)Nc2ccc(C)cc2)nc(O)cc1=O | inconclusive [inhibitor, single point] |
| O=C1CN(C(=O)COC(=O)c2cnc(Cl)c(Cl)c2)c2ccccc2N1 | active: 1.26 µM |
| CCOC(=O)C1(CCc2ccccc2)CCN(C(=O)CCc2cnccn2)CC1 | inconclusive [inhibitor, single point] |
| O=[N+]([O-])c1ccc(C=Nc2cccc3ccccc23)s1 | inconclusive [inhibitor, single point] |
| CC(C)CC(=O)Nc1cccc(-c2nc3ccccc3o2)c1 | inconclusive [inhibitor, single point] |

| Structure (SMILES) | Potency |
| --- | --- |
| O=S(=O)(N1CCCCC1)N1CCN(c2cc(Cl)ccc2Cl)CC1 | inconclusive [inhibitor, full curve] |
| Brc1ccccc1-c1nnc2sc(Cc3ccccc3)nn12 | inactive |
| Cc1cc(C)n2c(Br)c(CSc3nc4ccccc4s3)nc2n1 | inconclusive [inhibitor, single point] |
| COc1ccc(C2C=C(c3ccc(C)c(C)c3)Nc3ncnn32)c(OC)c1OC (centres undefined) | inconclusive [inhibitor, single point] |
| O=C(c1cnc(-c2ccc(Cl)cc2)s1)c1ccc(Cl)cc1Cl | inactive |
| CCOc1ccccc1/C=N/Nc1ccccc1[N+](=O)[O-] | inconclusive [inhibitor, single point] |
| CCC(SC1=Nc2ccccc2C2=NC(CC(C)C)C(=O)N12)C(=O)Nc1ccc2c(c1)OCO2 (centres undefined) | inconclusive [inhibitor, partial curve] |
| O=C1N=C(N2CCCC2)CN1c1ccccc1 | inactive |
| O=c1c(-c2ccccc2)nc2cncnc2n1C1CC1 | inconclusive [inhibitor, single point] |
| Oc1ccccc1N=Cc1ccc[nH]1 | inactive |
| CCOC(=O)c1c(NC(=O)C(C)Sc2c[nH]c3ccccc23)sc2c1CCC2 (centres undefined) | inconclusive [inhibitor, single point] |
| COc1ccc(-c2nc(SCC(=O)Nc3nccs3)c(-c3ccc(Cl)cc3)[nH]2)cc1 | inactive |
| COc1ccccc1N(CC(O)Cn1ccnc1C)S(=O)(=O)c1ccc(C)cc1 (centres undefined) | inactive |
| O=c1[nH]cnc2nn(-c3ccccc3)nc12 | inconclusive [inhibitor, partial curve] |
| CC(=O)Oc1ccccc1C(=O)O | inactive |
| COc1ccccc1NC(=O)CSC1=NC(=O)C(NC(C)=O)C(=O)N1 (centres undefined) | inconclusive [inhibitor, single point] |
| CCOc1ccc(-c2nc(CCl)cs2)cc1 | inactive |
| COc1ccc(N=C2NN=C(c3ccc4c(c3)OCCO4)CS2)cc1 | active: 25.1 µM |
| CN(CC(=O)NCCN1CCCCCC1)S(=O)(=O)c1cccc2nsnc12 | inconclusive [inhibitor, single point] |
| O=C(c1ccco1)N1CCC[C@@]2(CCN(c3ccccc3)C2)C1 | inconclusive [inhibitor, single point] |
| CC1(C)Cc2cccc(OCC(=O)Nc3nccs3)c2O1 | inactive |
| CCCCn1c2nc3ccccc3nc2c2c(=O)n(CCC)cnc21 | inconclusive [inhibitor, partial curve] |
| Cc1ccc(C)c(NC(=S)c2ccc3ccccc3n2)c1 | inactive |
| CC(C(=O)Nc1sccc1C(N)=O)N1C(=O)C2CC=CCC2C1=O (centres undefined) | inactive |
